Results reported in the supplement of paper PMC10126150.
Values marked as one replicate rest on one cluster of the flow cell; about a third of the high ones do not repeat.

Tested on: ATP
Experiment: switch fluorescence ratio, 500 uM ATP over buffer (Cy3 cluster intensity, sum of 5 cycles each) (fold (ratio)); higher = stronger signal-on switching upon ATP binding; sequences stand for … in TCGTCGGCAGCGTCAGATGTGTATAAGAGACAGTTTTTTTTTTTTTTTTTTTTTTTTT…TC
Conditions: aptamer strand: ATP DNA aptamer (quencher-CACCTGGGGGAGTATTGCGGAGGAAGG + anchor), 100 nM annealed; ATP concentration: 500 uM; one replicate
How it was run: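 Values give the fluorescence ratio for each switch-domain sequence, averaged from per-cluster ratios of summed target-cycle to summed buffer-cycle Cy3 intensity. The Cy3-labelled switching-strand clusters sat on a modified Illumina MiSeq flow-cell, were annealed to 100 nM quencher-labelled ATP aptamer, and were imaged in selection buffer, then after 15 min with 500 uM ATP at 22 °C. Five cycles ran with NaOH stripping and re-annealing between them, and clusters outside 100-1000 RFU were excluded.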
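Note: ATP exposure 15 min at 22 °C before imaging.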

Row | Sequence | switch fluorescence ratio
1 | TTATTAACAC | 1.03
2 | GCGTTCAAGC | 1.04
3 | GACGTAGGTG | 1.02
4 | GGCCATAAGG | 1.02
5 | AGGTTCGTGC | 0.99
6 | TATGCGAGCG | 1.02
7 | TAACCTAATT | 0.979
8 | TTGACGTTC | 1.06
9 | CGAGGTGTGC | 0.947
10 | GCGAATCGAC | 1.15
11 | TGCGGCTCAT | 0.959
12 | GACGATGTGC | 1.5
13 | GGGAATACTC | 3.48
14 | GATGAGAGAA | 0.982
15 | CTGGTTCGCA | 1.06
16 | TGAAGGCATC | 1.03
17 | TGCGTCGAGG | 1.01
18 | CTCAGGAGAG | 1.04
19 | CCAAAACCCG | 1.08
20 | TTGTACTATG | 1.01
21 | AAGGTACGGG | 1
22 | TCGGCTCCT | 1.16
23 | TGATGCTAAC | 1.23

Row | Sequence | switch fluorescence ratio
24 | TGGCACGTCG | 1.1
25 | AGACTGAAAT | 0.989
26 | GAAAGTATGG | 0.979
27 | AACACTGGCG | 1.03
28 | GTGAGCTTAA | 1.01
29 | AAACATCTAG | 1.02
30 | GCGCGGTTTC | 1.04
31 | TACGAACCGG | 1.19
32 | GCAGGTGTCC | 1.34
33 | ATGGACCAGC | 1.04
34 | ACGAACTCTT | 1.18
35 | TAATATTTTC | 0.968
36 | TTGCGGTTA | 0.947
37 | ACCGTGTCGA | 1.03
38 | TGCTCACTGG | 1.01
39 | TGCCGAGTTA | 1.02
40 | GAATCTGGAC | 1.04
41 | GAGCTTACG | 1.03
42 | TCGGCCATTA | 0.985
43 | AGACGTCGAT | 1.05
44 | TAAGATCGGT | 1.02
45 | TGTTACCGGC | 1.02
46 | CTTACCGGTC | 0.994

Row | Sequence | switch fluorescence ratio
47 | GGTGAGACTA | 1.01
48 | TTCTTGTGGT | 1.04
49 | ACTTCCATTG | 1.08
50 | TATTACACG | 1.07
51 | GTAAGCTTCT | 1.06
52 | TTCGGCCTAG | 1.01
53 | GCCCACCTGT | 1.02
54 | GGGCCAGGAA | 0.972
55 | CCATAGCGAA | 4.07
56 | TGGGGAGAAT | 1.03
57 | GGACGGTGCC | 0.977
58 | GGTGCTAAAC | 1.01
59 | GGACAATAGG | 0.959
60 | GGCGCGGCCG | 0.991
61 | AAGTGATTAT | 0.976
62 | CTATTACAAT | 1.01
63 | TTGTGGCCCC | 1.02
64 | CGGCCCTTGG | 1.04
65 | CAGTATAACA | 0.983
66 | CGCTCATATA | 1.07
67 | GTGATTGGAT | 0.992
68 | CTCTATTTCA | 1.03
69 | CAGACTGGGC | 1.02

Row | Sequence | switch fluorescence ratio
70 | GCAGCTTGCG | 1.04
71 | CTAATTAGGT | 0.99
72 | AGGAACCGTA | 1.15
73 | GAATCCTGGT | 0.963
74 | CCGAAGGCTG | 1.19
75 | TGTTCTGGTC | 0.997
76 | TGGCCTTA | 0.983
77 | CTGGGCAGCG | 0.999
78 | ATTGGTTATT | 0.959
79 | CCTTTTGGCA | 1.05
80 | TTTCCATTTC | 0.994
81 | TTGCCAGATA | 0.972
82 | AACGCGTTAG | 0.985
83 | TGAGATTTCC | 1.1
84 | AGTTATTCG | 0.934
85 | GCAGTGAGGT | 0.979
86 | TAGTCAGCCG | 0.882
87 | TTCCGTCGAT | 1
88 | AGGTAGAAAA | 1.04
89 | TACATGTGTA | 1.02
90 | CAGGGATAAT | 0.979
91 | CCAAATTTTT | 1.03
92 | TGAAATAGGC | 1.49

Row | Sequence | switch fluorescence ratio
93 | CTACCCTGGA | 1.05
94 | TGGTACGATC | 0.963
95 | GCTACTAACT | 1.15
96 | AATCCGTCTA | 1.13
97 | CAGCTACGAT | 1.07
98 | CAGTGCAGAG | 0.972
99 | AGATTTAAGG | 1
100 | TATGCCCGA | 0.966
101 | TTTTAGAGAC | 1.03
102 | ACCCAAAATG | 1.03
103 | TCCAACTGGT | 0.998
104 | ACAAATAAG | 0.942
105 | GCCGTCACAT | 1
106 | AAGCATGT | 1.09
107 | CATCGAGCTC | 1
108 | GGGGAAAAAC | 1.02
109 | TAAAGCCCTA | 0.98
110 | GTGGCGTTAG | 0.986
111 | AAATGAGGCA | 0.999
112 | AGGCTCTAGG | 1.02
113 | TCTAGTATAG | 0.958
114 | TAGATTAGC | 0.962
115 | TGCCGTGCGT | 1.02

Row | Sequence | switch fluorescence ratio
116 | TTTTGGTGAT | 1.01
117 | AGGTAACAGG | 1.01
118 | CGATTTGTTA | 1
119 | CCTTGGGGCC | 0.996
120 | ATAAGTGCAC | 0.951
121 | GTGCCTAGTA | 1.01
122 | TCTGAACGAG | 1.03
123 | CATGGGGCAC | 1.01
124 | CGTTATTGTT | 0.976
125 | AATGCGTCGT | 0.919
126 | GGACACATC | 1.05
127 | CGCTATGGTG | 0.969
128 | GGTGAATAAG | 1.05
129 | GATCACTTCG | 1
130 | AAAGGCGACG | 0.98
131 | TAGTTGTAGC | 0.998
132 | TCTGGCCTAT | 1.02
133 | CGGTCCGGTC | 1.01
134 | GGGCGCGGCA | 1.01
135 | TCGAAATGTA | 0.993
136 | AGTTGAAGC | 0.973
137 | TCACACGTGG | 1.02
138 | AGTAAGATA | 1.02

Row | Sequence | switch fluorescence ratio
139 | ACCTCGTTGC | 1.11
140 | GACGGCAGTC | 1.01
141 | TCCCGTGAGC | 1.11
142 | AACCGCGACT | 1.38
143 | TTGCGTAAG | 0.97
144 | GAAGGGGCCA | 0.986
145 | GCTGTATG | 1.02
146 | ATTCAATGG | 1.05
147 | AGTTAACCAG | 1.01
148 | ATAATCATTC | 1.01
149 | GAGTTTTGTT | 1.02
150 | ACATTTCGC | 1.02
151 | TGCTCGAACT | 0.998
152 | TAGCTATTGG | 1.03
153 | AAAGTCGAAA | 0.971
154 | AGCGTCAGTT | 1.03
155 | CCTTATGTAA | 1.17
156 | GGGACTCTTG | 0.985
157 | GCTCACTTGC | 1.05
